Where a name gives a salt, the structure may show the parent alone. ± gives the standard deviation of the averaged measurements. Over roughly 2,000 compounds, “relative cell viability vs DMSO, compound + 0.2 uM CuET” has its median near 1; the lowest 2% begin near 0.25. Some of the results follow.

This experiment concerns TE10. Description: relative cell viability vs DMSO, compound + 0.2 uM CuET (fraction); TE10 is an esophageal squamous carcinoma line; higher = less cytotoxic. Particulars: 2 µM; co-treatment: CuET (bis(diethyldithiocarbamate)copper) 0.2 uM; 48 h. The protocol: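 TE10 ESCC cells (1,000/well, 384-well plates) were treated with Selleck bioactive library compounds at 2 uM combined with 0.2 uM CuET (copper diethyldithiocarbamate) for 48 h. Viability was read by CellTiter-Glo and expressed relative to DMSO wells. Two technical replicates (A, B).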
Take `Nc1ccn([C@@H]2O[C@H](CO)[C@@H](O)C2(F)F)c(=O)n1` [Gemcitabine]: the relative cell viability is 1.03 ± 0.048.
As for `COc1ccccc1N1CCN(CCN(C(=O)C2CCCCC2)c2ccccn2)CC1`, the figure is 1.08 ± 0.074; as for `CC1CNc2c(cccc2S(=O)(=O)N[C@@H](CCCNC(=N)N)C(=O)N2CC[C@@H](C)C[C@@H]2C(=O)O)C1` (some centres undefined) [Argatroban], 0.9507 ± 0.0054.
Then `CN(C)CCN(Cc1ccccc1)c1ccccn1` [Tripelennamine HCl], with 1.24 ± 0.021; and `Fc1ccc(Cl)cc1-c1nc(Nc2ccncc2)c2nccnc2n1`, with 0.838 ± 0.11.
In the case of `CO[C@H]1C[C@@H]2CC[C@@H](C)[C@@](O)(O2)C(=O)C(=O)N2CCCC[C@H]2C(=O)O[C@H]([C@H](C)C[C@@H]2CC[C@@H](OCCO)[C@H](OC)C2)CC(=O)[C@H](C)/C=C(\C)[C@@H](O)[C@@H](OC)C(=O)[C@H](C)C[C@H](C)/C=C/C=C/C=C/1C` [Everolimus (RAD001)], the relative cell viability was 0.982 ± 0.013.
Then `Cc1cc(C)c(Nc2ccnc(Nc3ccc(C#N)cc3)n2)c(C)c1` [Dapivirine (TMC120)], with 0.968 ± 0.056; and `Cc1cc(/C=C2/SC(=S)NC2=O)c(C)n1-c1cccnc1` [Optovin], with 1.34 ± 0.095.
As for `O=C(c1ccc(Nc2nccc(-c3cc4ccccc4s3)n2)cc1)N1CCC(N2CCCC2)CC1` [IKK-16 (IKK Inhibitor VII)], the figure is 0.568 ± 0.038.
As for `Clc1ccc(CSC(Cn2ccnc2)c2ccc(Cl)cc2Cl)cc1` (centres undefined) [Sulconazole Nitrate], the figure is 0.963 ± 0.027; as for `Nc1ncnc2c1ncn2[C@@H]1O[C@H](CO)[C@@H](O)[C@H]1O` [Adenosine], 1.33 ± 0.099; as for `CC1(C)CCC(C)(C)c2cc(NC(=O)c3ccc(C(=O)O)cc3)ccc21` [Tamibarotene], 1.03 ± 0.025.
`N[C@@H](Cc1cc(I)c(Oc2cc(I)c(O)c(I)c2)c(I)c1)C(=O)O` [L-Thyroxine]: the relative cell viability worked out at 1.08 ± 0.046.
As for `COc1cc(C(=O)O)ccc1NC(=O)[C@@H]1N[C@@H](CC(C)(C)C)[C@](C#N)(c2ccc(Cl)cc2F)[C@H]1c1cccc(Cl)c1F` [Idasanutlin (RG-7388)], the figure is 0.918 ± 0.1.
Then `O=C(O)C(O)Cc1ccc(O)c(O)c1` (centres undefined) [Sodium Danshensu], with 0.918 ± 0.068; and `Oc1ccc(OC2CCCCO2)cc1` (centres undefined) [Deoxyarbutin], with 1.31 ± 0.072.
As for `Nc1cccc2c1C(=O)N(C1CCC(=O)NC1=O)C2=O` (centres undefined) [Pomalidomide], the figure is 1.15 ± 0.096; as for `CCOC(=O)CCNc1cc(N2CCc3ccccc3CC2)nc(-c2ccccn2)n1`, 0.349 ± 0.041.
Turning to `COc1ccc2[nH]c([S+]([O-])Cc3ncc(C)c(OC)c3C)nc2n1` (centres undefined) [Tenatoprazole], the relative cell viability is 1.21 ± 0.042.
Then `Cc1cc(=O)oc2c(C=O)c(O)ccc12`, with 1.24 ± 0.086; and `CN(C)CCOC(c1ccccc1)c1ccccc1` [Diphenhydramine HCl], with 1.069 ± 0.00099; and `CN(C)CC/C=C1/c2ccccc2Sc2ccc(Cl)cc21` [Chlorprothixene], with 0.948 ± 0.074.
As for `Cn1cc(CNCC2CCN(c3ncc(C(=O)NO)cn3)CC2)c2ccccc21`, the figure is 0.171 ± 0.017.
As for `CC(=O)[C@H]1CC[C@H]2[C@@H]3CCC4=CC(=O)CC[C@]4(C)[C@H]3CC[C@]12C` [Progesterone], the figure is 1.07 ± 0.083.
Regarding `CCCN(CCC)S(=O)(=O)c1ccc(C(=O)O)cc1` [Probenecid], the relative cell viability was 1.15 ± 0.099.
Then `CCNC(=O)Nc1ccc(-c2nc3c(c(N4CCOC[C@@H]4C)n2)CCN(C2COC2)C3)cc1`, with 0.919 ± 0.08; and `CC(NC(=O)Cc1cc(F)cc(F)c1)C(=O)NC(C(=O)OC(C)(C)C)c1ccccc1` (centres undefined), with 1.23 ± 0.04; and `C[C@]12CC[C@@H]3c4ccc(O)cc4CC[C@H]3[C@@H]1CC[C@@H]2O` [Estradiol], with 1.07 ± 0.034.
As for `C[C@H](NC(=O)/C(C#N)=C/c1cccc(Br)n1)c1ccccc1`, the figure is 0.314 ± 0.032.
As for `CC(C)c1ccc(NC(=O)Cn2cnc3c2c(=O)n(C)c(=O)n3C)cc1`, the figure is 1.04 ± 0.12; as for `CCC(CC)n1ccc2c(C(=O)NCc3c(C)cc(C)[nH]c3=O)cc(C#N)cc21`, 1.27 ± 0.092.
As for `CCNC(=O)c1[nH]nc(-c2cc(Cl)c(O)cc2O)c1-c1ccc(OC)cc1`, the relative cell viability amounted to 0.591 ± 0.052.
Then `C=CC(=O)Nc1cc(Nc2nccc(-c3c[nH]c4ccccc34)n2)c(OC)cc1N(C)CCN(C)C`, with 0.476 ± 0.0093; and `Cc1ccc(NCCCc2ccccc2)c(N)c1`, with 1.06 ± 0.024; and `C#Cc1cccc(Nc2ncnc3cc4c(cc23)OCCOCCOCCO4)c1` [Icotinib], with 0.983 ± 0.25.
Then `C=CC(=O)Nc1cc(Nc2nccc(-c3cn(C)c4ccccc34)n2)c(OC)cc1N(C)CCN(C)C`, with 0.529 ± 0.063.
Then `O=C(O)c1ccc(-c2c[nH]c3ncc(-c4ccccc4)cc23)cc1C1CCCC1`, with 1.029 ± 0.0056; and `Cc1ncc(CO)c(CO)c1O` [Pyridoxine HCl], with 1.04 ± 0.16; and `C[C@H](O)[C@H](O)[C@@H](O)[C@@H](O)C=O` [L-(+)-Rhamnose Monohydrate], with 1.15 ± 0.046.
In the case of `COc1ccc2ccc(=O)oc2c1CC=C(C)C` [Osthole], the relative cell viability stood at 1.09 ± 0.086.
Then `O=C(Nc1nc2cccc(-c3ccc(CN4CCS(=O)(=O)CC4)cc3)n2n1)C1CC1` [Filgotinib (GLPG0634)], with 0.966 ± 0.049; and `N=C(N)NS(=O)(=O)c1ccc(N)cc1` [Sulfaguanidine], with 1.23 ± 0.043; and `CC(=O)Oc1ccccc1C(=O)O` [Aspirin], with 1.16 ± 0.095.
As for `CNS(=O)(=O)CCc1ccc2[nH]cc(C3CCN(C)CC3)c2c1` [Naratriptan], the figure is 1.2 ± 0.1; as for `Nc1nc(NC2CC2)cc(-c2cccc(Cl)c2Cl)n1`, 0.866 ± 0.047.
As for `C[C@]12CC[C@H](O)CC1=CC[C@@H]1[C@@H]2CC[C@]2(C)C(n3cnc4ccccc43)=CC[C@@H]12` [Galeterone], the figure is 1.02 ± 0.058; as for `CC1=C(/C=C/C(C)=C/C=C/C(C)=C/C(=O)O)C(C)(C)CCC1` [Tretinoin], 0.903 ± 0.066; as for `N=C(N)Nc1ccc(C(=O)Oc2ccc3cc(C(=N)N)ccc3c2)cc1` [Nafamostat Mesylate], 0.781 ± 0.23.
In the case of `Cc1[nH]c2ccccc2c1C1=C(NCCc2ccc(F)cc2)C(=O)N(C)C1=O`, the relative cell viability stood at 1.17 ± 0.023.
As for `O=C(NO)c1cccc(C(=O)NCCc2ccccc2)c1`, the relative cell viability was 1.32 ± 0.041.
Then `CC(=O)Nc1nc2c(Oc3cc(-c4ccc(C(F)(F)F)cc4)ncn3)cccc2s1`, with 1.019 ± 0.0092.
As for `N[C@@H](Cc1c[nH]c2ccc(O)cc12)C(=O)O` [5-hydroxytryptophan (5-HTP)], the figure is 1.22 ± 0.064; as for `O=C(O)c1cc(C(F)(F)F)ccc1N1CC[C@H](OCc2ccccn2)C1`, 1.19 ± 0.033.
As for `CC(C)n1nc(-c2ccc3oc(N)nc3c2)c2c(N)ncnc21`, the figure is 0.494 ± 0.14; as for `CCCCCOc1ccc(-c2cc(-c3ccc(C(=O)N[C@H]4C[C@@H](O)[C@@H](O)NC(=O)[C@@H]5[C@@H](O)[C@@H](C)CN5C(=O)[C@H]([C@H](O)CC(N)=O)NC(=O)[C@H]([C@H](O)[C@@H](O)c5ccc(O)c(OS(=O)(=O)O)c5)NC(=O)[C@@H]5C[C@@H](O)CN5C(=O)[C@H]([C@@H](C)O)NC4=O)cc3)no2)cc1` [Micafungin Sodium], 1.04 ± 0.014.
With `N#CSc1cc(SC#N)c(N)nc1N`, the relative cell viability stood at 0.612 ± 0.04.
Then `Oc1ccc2ccccc2c1SSc1c(O)ccc2ccccc12`, with 0.842 ± 0.1.
As for `COc1cc2nc(N(C)CCCNC(=O)C3CCCO3)nc(N)c2cc1OC` (centres undefined) [Alfuzosin HCl], the relative cell viability worked out at 1.24 ± 0.088.
`CC1(C)CC(=O)c2c(C(F)(F)F)nn(-c3ccc(C(N)=O)c(N[C@H]4CC[C@H](O)CC4)c3)c2C1`: the relative cell viability is 0.802 ± 0.12.
Then `O=C(O)/C=C/c1ccc(O)c(O)c1` [Caffeic Acid], with 1.1 ± 0.031; and `O=C(Nc1cccc2cccnc12)c1ccc(N2C(=O)C3C4C=CC(C4)C3C2=O)cc1` (stereo not drawn) [IWR-1-endo], with 0.994 ± 0.1; and `CCCCc1nc2cc(/C=C/C(=O)NO)ccc2n1CCN(CC)CC` [Pracinostat (SB939)], with 0.2435 ± 0.00015.
Regarding `CC(C)c1cc(-c2n[nH]c(=O)n2-c2ccc3c(ccn3C)c2)c(O)cc1O` [Ganetespib (STA-9090)], the relative cell viability came out at 0.793 ± 0.17.
Regarding `CC(=O)O[C@]1(C(C)=O)CC[C@H]2[C@@H]3C=C(Cl)C4=CC(=O)[C@@H]5C[C@@H]5[C@]4(C)[C@H]3CC[C@@]21C` [Cyproterone Acetate], the relative cell viability was determined as 1.03 ± 0.084.
Then `COc1ccc(-c2ccc3ncc4c(c3c2)n(-c2ccc(N3CCNCC3)c(C(F)(F)F)c2)c(=O)n4C)cn1`, with 0.104 ± 0.0046.
Take `O=C(O)COCCN1CCN(C(c2ccccc2)c2ccc(Cl)cc2)CC1` (centres undefined) [Cetirizine DiHCl]: the relative cell viability came to 1.19 ± 0.0036.
For `Cc1cc(C)c(-c2csc(NC(=O)c3ccccc3)n2)c(C)c1`, the relative cell viability was 1.17 ± 0.069.
As for `CCCSc1nc(N[C@@H]2C[C@H]2c2ccc(F)c(F)c2)c2nnn([C@@H]3C[C@H](OCCO)[C@@H](O)[C@H]3O)c2n1` [Ticagrelor], the figure is 0.99 ± 0.069.
As for `C=CC(=O)Nc1cccc(Nc2nc(Nc3ccc(Oc4ccnc(C(=O)NC)c4)cc3)ncc2F)c1`, the figure is 0.79 ± 0.053.
Then `CC(NC(=O)c1ccccc1/N=C/c1c(O)ccc2ccccc12)c1ccccc1` (centres undefined) [Sirtinol], with 1.05 ± 0.086; and `Cc1cccc(-c2[nH]c(C(C)(C)C)nc2-c2ccc3c(c2)OCO3)n1`, with 0.8195 ± 0.0064; and `CC(C)(OCc1nn(Cc2ccccc2)c2ccccc12)C(=O)O` [Bindarit], with 1.28 ± 0.15.
In the case of `CCCN1CCCC[C@H]1C(=O)Nc1c(C)cccc1C` [Ropivacaine HCl], the relative cell viability stood at 1.04 ± 0.042.
Then `CC(C)NCC(O)COc1ccc(CCOCC2CC2)cc1` (centres undefined) [Betaxolol hydrochloride (Betoptic)], with 0.996 ± 0.13; and `CCc1nc(N)nc(N)c1-c1ccc(Cl)cc1` [Pyrimethamine], with 0.971 ± 0.015; and `CCN(C(=O)c1c(O)c2c(Cl)cccc2n(C)c1=O)c1ccccc1` [Laquinimod], with 1.05 ± 0.13.
With `CN1CC(=O)N2[C@H](c3ccc4c(c3)OCO4)c3[nH]c4ccccc4c3C[C@@H]2C1=O` [Tadalafil], the relative cell viability was 1.14 ± 0.064.
Then `CCOc1nc2cccc(C(=O)OCc3oc(=O)oc3C)c2n1Cc1ccc(-c2ccccc2-c2noc(=O)[nH]2)cc1` [Azilsartan Medoxomil], with 1.094 ± 0.0084; and `CN1c2cc(O)c(N=NC(N)=O)cc2CC1S(=O)(=O)O` (centres undefined) [Carbazochrome sodium sulfonate (AC-17)], with 0.884 ± 0.033.

The record behind these values is the supplement of paper PMC10670038.
